{
  "source": "PubChem BioAssay AID1865",
  "about": "(National Center for Advancing Translational Sciences (NCATS), 2009)",
  "note": "The whole screen tested about 280,000 compounds, of which about 540 (0.19%) were called active. This list was built around the results that the source calls inconclusive (neither active nor inactive); the mix of calls is not that of the screen. Calls follow the shape of the dose curve; as a rule, active = well fitted activation curve with a large enough effect; inconclusive = small, poorly fitted or top-dose-only effect; inactive = flat fitted curve, though single readings scatter. Potencies beside an inconclusive call are fits to weak or partial responses and may not hold up. Potency is read from the fitted curve at half-maximal effect; tags tell the direction and shape of the fitted curve.",
  "data": [
    {"assay": "Quantitative High-Throughput Screen for Regulators of Epigenetic Control; also: nearly all actives have a fitted effect of over 60% in size; as to GFP activation: % of control where 0% means no effect", "details": "murine LDR cells, GFP reporter derepression, 30 h; GFP activation: at 53.9 µM (top of the series)", "outline": "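Readout is the number of GFP-expressing murine LDR cells, counted by cytometry following washing. Cells were treated with compound for 30 h at 37 C; the stably integrated CMV-GFP locus is normally silent.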", "values": [
      {"smiles": "Cc1ccc(NC(=O)CN2C(=O)S/C(=C\\c3cc(C)n(C)c3C)C2=O)cc1", "Potency": "inconclusive: 35.5 µM [activator, single point]"},
      {"smiles": "COc1ccc(-n2c(O)c(/C=N/NS(=O)(=O)c3cccc([N+](=O)[O-])c3)c3ccccc3c2=O)cc1OC", "Potency": "inconclusive: 5.62 µM [activator, single point]"},
      {"smiles": "O=C1CN(c2nc(-c3ccccc3)c3cc(Cl)ccc3n2)c2ccccc2N1", "Potency": "inconclusive: 5.62 µM [activator, full curve]"},
      {"smiles": "COc1ccc(CNC(=O)C(=O)Nc2ccccc2OC)cc1", "GFP activation": "inactive: -0.754%"},
      {"smiles": "CCOC(=O)CSc1nc2cc(OC)ccc2cc1C#N", "Potency": "inconclusive: 3.55 µM [activator, full curve]"},
      {"smiles": "COc1cc(C2NC(=S)NC(O)(C(F)(F)F)C2C(=O)c2cccs2)cc(OC)c1O", "note": "(centres undefined)", "Potency": "inconclusive: 15.8 µM [activator, partial curve]"},
      {"smiles": "Cc1ccc(/C=C2\\CCC3=C2OC(N)=C(C#N)C3c2ccc(C)cc2)cc1", "note": "(centres undefined)", "Potency": "active: 11.2 µM"},
      {"smiles": "COc1ccccc1OCC(=O)N/N=C/C=C/c1ccc([N+](=O)[O-])o1", "Potency": "active: 10 µM"},
      {"smiles": "COC(=O)C1=C(C)NC(C)=C(C(=O)OC)C1C(=O)OCCN1C(=O)c2ccccc2C1=O", "GFP activation": "inactive: 0%"},
      {"smiles": "Cc1ccccc1C1C(C#N)=C2N=C(N)c3c(sc4c3CCCCC4)N2C2=C1C(=O)CCC2", "note": "(centres undefined)", "Potency": "inconclusive: 31.6 µM [activator, single point]"},
      {"smiles": "COc1ccc(/C=N/Nc2ccccn2)cc1OC", "GFP activation": "inactive: -4.02%"},
      {"smiles": "O=S(=O)(c1ccc(C(F)(F)F)cc1)N1CCCN(c2ccc(C(F)(F)F)cn2)CC1", "GFP activation": "inactive: 0.0625%"},
      {"smiles": "CC(CNC(=O)c1ccc(C(C)(C)C)cc1)CN(C)C", "note": "(centres undefined)", "Potency": "inconclusive: 15.8 µM [activator, single point]"},
      {"smiles": "OCC1OC(n2cnc3c(NCc4ccco4)ncnc32)C(O)C1O", "note": "(centres undefined)", "Potency": "inconclusive: 35.5 µM [activator, single point]"},
      {"smiles": "COc1ccc(OC(=O)c2ccc3nsnc3c2)cc1", "Potency": "inconclusive: 0.005 µM [activator, full curve, poor fit]"},
      {"smiles": "Cc1cccc2cc3c(N)c(C(=O)N4CCc5ccccc54)sc3nc12", "Potency": "inconclusive: 31.6 µM [activator, single point]"},
      {"smiles": "COC(=O)c1sccc1OCc1cccc(OC)c1", "GFP activation": "inactive: 0.337%"},
      {"smiles": "C=CCNC(=S)N/N=C(\\C)c1cccc(NC(C)=O)c1", "Potency": "inconclusive: 11.2 µM [activator, partial curve]"},
      {"smiles": "COc1ccc2nc(NC(=O)c3nc(S(=O)(=O)Cc4ccc(C)cc4)ncc3Cl)sc2c1", "Potency": "inconclusive: 3.98 µM [activator, full curve, poor fit]"},
      {"smiles": "CCOC(=O)C1=C(c2ccccc2)O/C(=C(/C#N)C(F)(F)F)S1", "Potency": "inconclusive: 3.16 µM [activator, partial curve]"},
      {"smiles": "CCC(C(=O)NCCc1cc(OC)ccc1OC)n1nc(C)c2sc3ccccc3c2c1=O", "note": "(centres undefined)", "Potency": "active: 12.6 µM"},
      {"smiles": "CCCCOC(=O)C(C#N)c1nc2ccccc2nc1N1CCN(Cc2ccc3c(c2)OCO3)CC1", "note": "(centres undefined)", "Potency": "inconclusive: 25.1 µM [activator, single point]"},
      {"smiles": "COc1ccc(NC(=O)CCC(=O)N/N=C/c2ccncc2)cc1", "GFP activation": "inactive: 0%"},
      {"smiles": "O=C(Oc1c(CN2CCOCC2)cc(Cl)c2cccnc12)c1cccs1", "Potency": "inconclusive: 6.31 µM [activator, single point]"},
      {"smiles": "O=C(NCc1ccccc1)NC1CC2CCC(C1)N2Cc1ccco1", "note": "(centres undefined)", "GFP activation": "inactive: -0.79%"},
      {"smiles": "Cc1ccc(C)c(NC(=O)Nc2csc3c2CCCC3)c1", "Potency": "inconclusive: 35.5 µM [activator, single point]"},
      {"smiles": "COc1ccc(O)c(CNn2c(-c3ccc(Br)cc3)nc3ccccc3c2=O)c1", "Potency": "inconclusive: 35.5 µM [activator, single point]"},
      {"smiles": "O=C1c2cccc3c([N+](=O)[O-])ccc(c23)C(=O)N1c1nccs1", "Potency": "inconclusive: 17.8 µM [activator, single point]"},
      {"smiles": "COc1ccc(-c2nn(-c3ccccc3)cc2/C=N/NC(N)=S)cc1OC", "Potency": "inconclusive: 31.6 µM [activator, single point]"},
      {"smiles": "O=C(c1ccco1)N1CCN(C(=O)c2cc(-c3ccccn3)nc3ccc(Cl)cc23)CC1", "Potency": "inconclusive: 35.5 µM [activator, single point]"},
      {"smiles": "CCc1ccccc1NC(=O)CN1C(=O)COc2ccc(S(=O)(=O)N3CCCCCC3)cc21", "Potency": "inconclusive: 35.5 µM [activator, single point]"},
      {"smiles": "COc1cc(-c2cc(-c3ccccc3)nc(SCC(=O)Nc3nccs3)c2C#N)cc(OC)c1OC", "Potency": "inconclusive: 35.5 µM [activator, single point]"},
      {"smiles": "CCOC(=O)/C=C/C(=O)N1CCN(C(=O)/C=C/C(=O)OCC)CC1", "Potency": "inconclusive: 28.2 µM [activator, single point]"},
      {"smiles": "COc1cc(OC)cc(C(=O)NC2CCN(CC(=O)Nc3cccc4ccccc34)CC2)c1", "Potency": "inconclusive: 15.8 µM [activator, single point]"},
      {"smiles": "COc1ccc2[nH]c(=O)c(CNc3ccc(C)cc3C)cc2c1", "GFP activation": "inactive: -0.971%"},
      {"smiles": "COc1ccc(C)cc1NC(=O)C1CCN(S(=O)(=O)c2cccc3nonc23)CC1", "Potency": "inconclusive: 31.6 µM [activator, single point]"},
      {"smiles": "COc1cc(/C=C2\\SC(=O)N(CCN)C2=O)ccc1OS(=O)(=O)c1cc(C)ccc1C", "Potency": "inconclusive: 35.5 µM [activator, single point]"},
      {"smiles": "COc1ccc(OC)c(NC(=O)c2nc(SCc3ccc(F)cc3)ncc2Cl)c1", "Potency": "inconclusive: 6.31 µM [activator, single point]"},
      {"smiles": "Cc1ccccc1-c1nn(-c2ccc(F)cc2F)cc1CNCCN(C)C", "GFP activation": "inactive: 0.491%"},
      {"smiles": "Cc1ccc(-c2c(C)n3c4c(=O)n(C)c(=O)n(C)c4nc3n2CCCO)cc1", "Potency": "inconclusive: 4.47 µM [activator, single point]"},
      {"smiles": "S=C(Nc1ccccc1)c1ccccn1", "Potency": "active: 5.62 µM"},
      {"smiles": "CCn1nnnc1SCC(=O)Nc1ccc2c(c1)OCCO2", "GFP activation": "inactive: 2.03%"},
      {"smiles": "Cc1ccccc1CNC(=O)C1CCN(S(=O)(=O)Cc2ccccc2)CC1", "GFP activation": "inactive: -0.841%"},
      {"smiles": "COC(=O)c1ccccc1NC(=O)c1ccc(COc2ccc3c(c2)CCC3)cc1", "Potency": "inconclusive: 6.31 µM [activator, single point]"},
      {"smiles": "CC(=O)c1ccc(N2CCN(CC(=O)Nc3ccc(N4CCOCC4)cc3)CC2)cc1", "GFP activation": "inactive: -0.451%"},
      {"smiles": "COc1ccc(CCNC(=O)C2CC(c3ccc(C(F)(F)F)cc3)=NO2)cc1", "note": "(centres undefined)", "Potency": "inconclusive: 14.1 µM [activator, single point]"},
      {"smiles": "O=C(CN1C(=O)S/C(=C/c2ccc(N3CCOCC3)cc2)C1=O)N1CCOCC1", "Potency": "inconclusive: 28.2 µM [activator, single point]"},
      {"smiles": "Cc1cccc(NC(=O)CSc2cc(C)c(C#N)c3nc4ccccc4n23)c1", "Potency": "inconclusive: 17.8 µM [activator, single point]"},
      {"smiles": "CCc1nnc(NC(=O)c2ccc(S(=O)(=O)N(CC(C)C)CC(C)C)cc2)o1", "GFP activation": "inactive: -1%"},
      {"smiles": "CC(C)(C)C(=O)c1sc2nc(-c3cccs3)cc(C(F)(F)F)c2c1N", "Potency": "active: 11.2 µM"},
      {"smiles": "O=[N+]([O-])c1cc(Cl)c2cccnc2c1O", "Potency": "inconclusive: 15.8 µM [activator, single point]"},
      {"smiles": "COc1ccc(C(=O)C2CCCN(Cc3cccn3-c3ccc(Cl)cn3)C2)c(OC)c1", "note": "(centres undefined)", "GFP activation": "inactive: -1.37%"},
      {"smiles": "Cn1c(N2CCN(c3ccccn3)CC2)nc2c1c(=O)n(Cc1ccc(Cl)cc1)c(=O)n2C", "GFP activation": "inactive: -0.223%"},
      {"smiles": "CCCCCn1nc(-c2ccccc2)c2nc3ccccc3nc21", "Potency": "inconclusive: 31.6 µM [activator, single point]"},
      {"smiles": "COc1cc(/C=C/c2ccc3c(Br)cc(Br)c(O)c3n2)ccc1O", "Potency": "inconclusive: 31.6 µM [activator, single point]"},
      {"smiles": "CN(Cc1cn(C)nc1-c1ccc(Oc2ccccc2)cc1)Cc1cnc2ccccn12", "GFP activation": "inactive: 1.68%"},
      {"smiles": "COc1ccc2cc3cc(C(=O)NCCCN4CCOCC4)oc3nc2c1", "GFP activation": "inactive: 0%"},
      {"smiles": "COc1cccc(C(=O)Nc2cccc(OCc3cc(=O)n4c5c(sc4n3)CCCC5)c2)c1", "Potency": "inconclusive: 35.5 µM [activator, single point]"},
      {"smiles": "O=C(Nc1nc(=O)c2ccccc2s1)c1ccc(F)cc1", "Potency": "inconclusive: 20 µM [activator, single point]"},
      {"smiles": "COc1ccccc1NC(=O)CC1COc2ccccc2O1", "note": "(centres undefined)", "GFP activation": "inactive: 1.89%"},
      {"smiles": "O=C(N/N=C/c1ccc(-c2ccc([N+](=O)[O-])cc2)o1)[C@H]1C[C@@H]1c1ccccc1", "Potency": "inconclusive: 28.2 µM [activator, single point]"},
      {"smiles": "Cc1ccc(-c2nnn(CC(=O)N(Cc3cccs3)C(C(=O)NC3CCCCC3)c3ccco3)n2)o1", "note": "(centres undefined)", "Potency": "inconclusive: 20 µM [activator, single point]"},
      {"smiles": "CN(Cc1cn(Cc2ccccc2)nc1-c1ccc2c(c1)OCO2)Cc1nccn1C", "GFP activation": "inactive: 0.312%"},
      {"smiles": "Cc1ccc(CNc2ncnc3c2nnn3C)cc1", "GFP activation": "inactive: 2.06%"},
      {"smiles": "Cc1cn2c(=O)cc(COC(=O)c3cccc(NC(=O)c4ccccc4Cl)c3)nc2s1", "Potency": "inconclusive: 31.6 µM [activator, single point]"},
      {"smiles": "C=CCNc1sc(C(=O)c2ccc(C)cc2)c(N)c1C#N", "Potency": "inconclusive: 31.6 µM [activator, single point]"},
      {"smiles": "CCc1ccc(-n2nc(C)c3c(C)cc(=O)n(CC(=O)Nc4ccc(C(C)=O)cc4)c32)cc1", "Potency": "inconclusive: 15.8 µM [activator, partial curve]"},
      {"smiles": "COc1ccc(-n2nc(C(=O)N3CCCC(C)C3)c3c4ccccc4n(C)c3c2=O)cc1Cl", "note": "(centres undefined)", "GFP activation": "inactive: -0.711%"},
      {"smiles": "CCOC(=O)c1ccc(NC(=O)CSc2c3c(nc4cc(Cl)ccc24)CCCC3)cc1", "Potency": "inconclusive: 31.6 µM [activator, single point]"}
    ]}
  ]
}
